In PMC10668032:
Some of the results follow. At the low end of the ranking the order means little.

These sequences were tested against SIX1-Q177R homeodomain (UniProt Q15475) (assay: universal protein binding microarray). Conditions: Universal all-10-mer PBM (8x60K, AMADID 030236), 300 nM GST-tagged protein, Alexa Fluor 488 anti-GST; buffer, salt, pH and temperature not stated; high values mean tight binding; most listed sequences are background and not binding sites; double strand, one strand shown.

Sequence | binding signal [E-score]
AAGCTGGA | -0.0562
AAGAGGTC | -0.172
ACTGAGCG | 0.0957
CTCGTAAC | -0.0126
CATGGTGA | 0.0347
GATATTAC | -0.0348
ACACTGTG | 0.381
ACCACCGT | 0.0559
AAGCTCAG | -0.247
AAGACTCC | -0.0556
AGTTGGGG | 0.16
TACTCGGA | 0.139
AGGTATTA | -0.0192
ACTCGCGA | 0.104
AAATTTTA | -0.179
AATTCGCC | -0.187
ATCCGACA | 0.238
AGCAAGAT | -0.0823
AAGCAGCG | 0.043
TCAGGGCA | -0.13
AATGCGAG | -0.212
TACCCCAA | 0.209
ATCATGGG | -0.0509
CGTGAGTC | -0.08
AAAGAGAT | -0.239

Sequence | binding signal [E-score]
CGCGCGAC | 0.0131
CTCATATA | -0.0223
GTAAGCTA | 0.0288
GACCCGGC | 0.0551
TCTCGGAA | -0.105
AATGGAAT | -0.149
GAACCACC | -0.0517
ACCCGCAG | 0.103
AGCATCAC | -0.145
AACCCCCT | 0.276
ATCCAGCC | -0.0219
ATCTCGTG | 0.0859
ATCCTAGG | 0.0725
AGAGTATC | 0.238
CTTGATGA | -0.091
CCCCGGAG | 0.261
AAGCCGAA | 0.0488
CGACTGTC | -0.0732
AGCGGAAA | -0.308
AATGCGGC | -0.028
GATCAGGC | -0.0652
AAATTGAT | -0.065
TCCGCGGA | 0.0601
ATGGCCGC | -0.286
GAAGGCCC | -0.338

Sequence | binding signal [E-score]
AAACCCAA | -0.0767
AGCGATAG | -0.203
CTTCGCAA | -0.149
GTCTCCAA | 0.0116
CCCCGAAC | 0.181
AGTGCCAA | -0.0609
TCCATACA | 0.0163
ACGAAAGC | -0.0155
GGTAATTA | -0.0806
CGTTCGCA | -0.0885
AGCCGTAG | 0.0304
TCTTCAAA | -0.0188
CCCCCTAC | 0.267
CGTAACGA | -0.205
CTCCAGCC | -0.232
AGTGTGGA | 0.162
GCTGTGCC | -0.161
ACTAGAGT | 0.0587
ACACTACG | 0.388
ACCCCTAA | 0.183
AGCCCTAA | -0.149
GCGATGCC | -0.214
ATTGGCAA | -0.178
GAAGGTAC | 0.0551
CCTTCACA | 0.0313

Sequence | binding signal [E-score]
AGAATAGA | -0.094
GGAACTAC | -0.0839
ACTCAAGA | 0.0727
ATAACAGA | -0.123
ACGTTATA | 0.0443
AGTTAGGG | 0.0149
CCAGGCAA | -0.115
CTTAGCAC | 0.0361
CGGTGGGA | -0.0776
AAGTGATC | 0.184
GCTTGGCA | -0.0224
ATTACGCA | -0.18
CTATTGGC | 0.00632
AGTTCGCG | -0.154
CCTTATAC | 0.000135
AACTTCGG | -0.137
CACTGTCA | 0.13
CCTATCTA | 0.0167
AGTTAACC | 0.0821
AAGGCGAG | -0.161
GATAAAGA | 0.0419
ATCTAGTC | -0.107
ACGAGGCA | -0.165
AATCGCTC | -0.15
CGGTCCAA | -0.114

Sequence | binding signal [E-score]
AATGCCGT | -0.149
AAAAATAT | -0.0209
ATGTCCGA | -0.115
CATGCCAC | 0.0723
AATCGCAG | -0.0167
AATCGGAT | -0.0445
GTCATCAC | -0.0533
CCCCCCGG | 0.254
AGGACCTA | -0.15
CGAGATAG | -0.177
CACCGCTC | 0.27
CGTCTTTA | -0.0503
CCCTAAGG | 0.0943
AAACGGAA | -0.261
CTCAGCAA | -0.256
CATTTGTC | -0.231
AGTACACG | 0.426
CATATTAA | 0.012
CTTAGGCA | -0.162
GGACCCCC | 0.26
AGTATGCG | 0.0688
CACAGATC | -0.0297
GAGCCCGA | -0.0374
GCATAGGA | 0.00271
ACGGGGAG | 0.0346

Sequence | binding signal [E-score]
GACCCCCA | 0.233
ATGCATGG | -0.052
TATTTGGA | -0.16
AGATCCTA | -0.145
AAACGACT | -0.0726
GGGACTGA | -0.127
CATTCCAC | -0.145
ACGTGTAT | 0.321
ATAGCCAT | -0.105
ACAGTCAA | -0.101
AGGGCGCG | 0.0639
AACGAGTA | -0.0303
AGTTTGCC | -0.173
CACAACCC | 0.124
CAGGATTC | 0.0219
GGGATCCC | 0.31
AAATTCCT | -0.271
CGTATCAC | 0.162
AATGCTGA | -0.0431
GATCCACC | 0.158
CTCTTAGC | -0.0641
ACCGGCTC | 0.0775
ACATAAAC | -0.101
AGAGGGTG | 0.318
GTAAGGAC | -0.0271

Sequence | binding signal [E-score]
AGCCGGCC | -0.0412
CACGACGC | 0.151
ACTGCGCT | -0.0156
CTGACTGC | 0.079
ACGGTTAG | 0.0843
ACTAGCCG | 0.0904
CATCGTTC | -0.0885
AACCCGAA | 0.0146
AGACCGAT | -0.0232
GCAAGGCA | -0.306
AACAGAGA | -0.128
CAAGCTAA | -0.172
AGCACCGA | 0.197
GGTTAGAA | 0.147
CGGCGTGA | 0.0302
AGAACCTG | -0.0509
GGAGCGTA | -0.161
CGGAGATC | -0.17
CAGTGTCA | 0.458
GACGTTAA | -0.172
TAGCAGGA | -0.17
CTATACCA | 0.118
